Test results as given in publication PMC7316778 (Nature Communications, 2020).
Values joined by “and” are separate entries in the source; they are usually repeats but may differ in a detail not shown here. Identical values can stand only once.

Experiments:
[1] = target: kinase targets in FES^S700C HL-60 cells (Homo sapiens, UniProt O14733); conditions: Figure 6f; kinase MAP2K7; WEL028 1 µM
[2] = target: kinase targets in FES^S700C HL-60 cells (Homo sapiens, UniProt O14976); conditions: Figure 6f; kinase GAK; WEL028 1 µM
[3] = target: kinase targets in FES^S700C HL-60 cells (Homo sapiens, UniProt O43318); conditions: Figure 6f; kinase MAP3K7; WEL028 1 µM
[4] = target: kinase targets in FES^S700C HL-60 cells (Homo sapiens, UniProt P00558); conditions: Figure 6f; kinase PGK1; WEL028 1 µM
[5] = target: kinase targets in FES^S700C HL-60 cells (Homo sapiens, UniProt P07332, S700C); conditions: Figure 6f; kinase FES; WEL028 1 µM
[6] = target: kinase targets in FES^S700C HL-60 cells (Homo sapiens, UniProt P14618); conditions: Figure 6f; kinase PKM; WEL028 1 µM
[7] = target: kinase targets in FES^S700C HL-60 cells (Homo sapiens, UniProt P15531); conditions: Figure 6f; kinase NME1; WEL028 1 µM
[8] = target: kinase targets in FES^S700C HL-60 cells (Homo sapiens, UniProt P17858); conditions: Figure 6f; kinase PFKL; WEL028 1 µM
[9] = target: kinase targets in FES^S700C HL-60 cells (Homo sapiens, UniProt P27361); conditions: Figure 6f; kinase MAPK3; WEL028 1 µM
[10] = target: kinase targets in FES^S700C HL-60 cells (Homo sapiens, UniProt P28482); conditions: Figure 6f; kinase MAPK1; WEL028 1 µM
[11] = target: kinase targets in FES^S700C HL-60 cells (Homo sapiens, UniProt P31152); conditions: Figure 6f; kinase MAPK4; WEL028 1 µM
[12] = target: kinase targets in FES^S700C HL-60 cells (Homo sapiens, UniProt P36507); conditions: Figure 6f; kinase MAP2K2; WEL028 1 µM
[13] = target: kinase targets in FES^S700C HL-60 cells (Homo sapiens, UniProt P46734); conditions: Figure 6f; kinase MAP2K3; WEL028 1 µM
[14] = target: kinase targets in FES^S700C HL-60 cells (Homo sapiens, UniProt P51812); conditions: Figure 6f; kinase RPS6KA3; WEL028 1 µM
[15] = target: kinase targets in FES^S700C HL-60 cells (Homo sapiens, UniProt P55263); conditions: Figure 6f; kinase ADK; WEL028 1 µM
[16] = target: kinase targets in FES^S700C HL-60 cells (Homo sapiens, UniProt Q01813); conditions: Figure 6f; kinase PFKP; WEL028 1 µM
[17] = target: kinase targets in FES^S700C HL-60 cells (Homo sapiens, UniProt Q02750); conditions: Figure 6f; kinase MAP2K1; WEL028 1 µM
[18] = target: kinase targets in FES^S700C HL-60 cells (Homo sapiens, UniProt Q13163); conditions: Figure 6f; kinase MAP2K5; WEL028 1 µM
[19] = target: kinase targets in FES^S700C HL-60 cells (Homo sapiens, UniProt Q15418); conditions: Figure 6f; kinase RPS6KA1; WEL028 1 µM
[20] = target: kinase targets in FES^S700C HL-60 cells (Homo sapiens, UniProt Q2M2I8); conditions: Figure 6f; kinase AAK1; WEL028 1 µM
[21] = target: kinase targets in FES^S700C HL-60 cells (Homo sapiens, UniProt Q8IW41); conditions: Figure 6f; kinase MAPKAPK5; WEL028 1 µM
[22] = target: kinase targets in FES^S700C HL-60 cells (Homo sapiens, UniProt Q8NB16); conditions: Figure 6f; kinase MLKL; WEL028 1 µM
[23] = target: kinase targets in FES^S700C HL-60 cells (Homo sapiens, UniProt Q9BRR6); conditions: Figure 6f; kinase ADPGK; WEL028 1 µM

## C#CCOc1ccc(Nc2ncc(Cl)c(Nc3ccccc3NC(=O)C=C)n2)c(OC)c1 [Compound 6]
[1]
  Fold enrichment over vehicle: 3.329 and 3.967 and 3.371
[2]
  Fold enrichment over vehicle: 46.597 and 48.249 and 48.210
[3]
  Fold enrichment over vehicle: 3.401 and 3.644 and 2.943
[4]
  Fold enrichment over vehicle: 3.111 and 2.913 and 2.858
[5]
  Fold enrichment over vehicle: 17.346 and 15.412 and 14.720
[6]
  Fold enrichment over vehicle: 3.367 and 4.114 and 3.701
[7]
  Fold enrichment over vehicle: 5.059 and 4.968 and 4.667
[8]
  Fold enrichment over vehicle: 14.982 and 14.069 and 13.466
[9]
  Fold enrichment over vehicle: 13.612 and 14.563 and 12.858
[10]
  Fold enrichment over vehicle: 101.649 and 113.458 and 99.127
[11]
  Fold enrichment over vehicle: 2.202 and 2.228 and 1.702
[12]
  Fold enrichment over vehicle: 68.904 and 88.929 and 69.455
[13]
  Fold enrichment over vehicle: 3.609 and 4.091 and 3.689
[14]
  Fold enrichment over vehicle: 2.865 and 3.187 and 2.209
[15]
  Fold enrichment over vehicle: 19.749 and 22.347 and 18.441
[16]
  Fold enrichment over vehicle: 10.227 and 11.752 and 10.493
[17]
  Fold enrichment over vehicle: 44.231 and 62.881 and 51.980
[18]
  Fold enrichment over vehicle: 3.389 and 3.993 and 3.476
[19]
  Fold enrichment over vehicle: 5.633 and 5.308 and 5.126
[20]
  Fold enrichment over vehicle: 2.888 and 3.284 and 2.733
[21]
  Fold enrichment over vehicle: 4.753 and 5.019 and 4.438
[22]
  Fold enrichment over vehicle: 4.020 and 2.753 and 2.842
[23]
  Fold enrichment over vehicle: 8.345 and 7.087 and 6.890
